Consider 94 sequences from the supplement of paper PMC3334620.

In all, about 33,000 sequences were measured (“E-score (-0.5 to 0.5)”: median about -0.012, highest 2% from about 0.29 on). The list shows a part of the results.

The target of the experiment is T1, Ybr033w (UniProt P38073).
T1 sequence: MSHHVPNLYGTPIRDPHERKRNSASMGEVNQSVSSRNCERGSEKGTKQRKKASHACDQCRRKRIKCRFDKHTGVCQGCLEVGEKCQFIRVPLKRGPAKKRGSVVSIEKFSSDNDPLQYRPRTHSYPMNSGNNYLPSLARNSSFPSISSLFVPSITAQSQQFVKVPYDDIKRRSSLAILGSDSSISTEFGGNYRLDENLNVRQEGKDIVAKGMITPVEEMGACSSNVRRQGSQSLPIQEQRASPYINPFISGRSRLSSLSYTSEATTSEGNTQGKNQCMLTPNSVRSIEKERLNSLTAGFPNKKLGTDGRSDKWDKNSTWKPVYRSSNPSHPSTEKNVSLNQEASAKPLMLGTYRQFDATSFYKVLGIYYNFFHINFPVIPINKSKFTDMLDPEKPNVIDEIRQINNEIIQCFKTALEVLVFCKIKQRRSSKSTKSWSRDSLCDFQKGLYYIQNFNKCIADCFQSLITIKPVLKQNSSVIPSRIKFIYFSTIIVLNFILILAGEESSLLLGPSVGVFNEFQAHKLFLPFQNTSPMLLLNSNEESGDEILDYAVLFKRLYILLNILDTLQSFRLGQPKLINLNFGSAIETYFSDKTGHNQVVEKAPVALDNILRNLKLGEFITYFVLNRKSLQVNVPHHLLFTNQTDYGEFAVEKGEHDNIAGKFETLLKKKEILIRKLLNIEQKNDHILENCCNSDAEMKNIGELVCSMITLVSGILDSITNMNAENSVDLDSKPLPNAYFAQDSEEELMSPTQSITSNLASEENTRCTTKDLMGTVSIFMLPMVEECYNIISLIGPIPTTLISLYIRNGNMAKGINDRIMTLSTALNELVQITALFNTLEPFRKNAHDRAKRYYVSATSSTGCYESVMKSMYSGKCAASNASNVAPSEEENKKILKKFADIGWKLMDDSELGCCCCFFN
The experiment can be described thus: PBM E-score (8-mer binding enrichment) (E-score (-0.5 to 0.5)); higher = stronger / more preferred TF binding; most listed sequences are background and not binding sites. Conditions: protein concentration: 200 nM; construct: GST-full length. The method, then: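 Universal 'all 10-mer' protein binding microarrays (Agilent AMADID 015681) probed with GST-tagged S. cerevisiae TFs (full-length or DBD) made by in vitro transcription/translation (PURExpress), about 100-200 nM. Bound TF was detected with fluorescent anti-GST. Each ungapped 8-mer (which stands for itself and its reverse complement) is scored by the PBM enrichment score (E-score), a modified Wilcoxon-Mann-Whitney statistic from -0.5 to +0.5, computed with the Universal PBM Analysis Suite. Scale: above 0.35 generally sequence-specific binding.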
Take ACCTATAT: the “PBM E-score” value came out at 0.214.

With AGAGCACA, the “PBM E-score” value was -0.151.

As for TACGACCA, the “PBM E-score” value is -0.0253.

With AGGAGACG, the “PBM E-score” value is -0.304.

Turning to GCGGGATA, the “PBM E-score” value is -0.0574.

Regarding CGCAAGAC, the “PBM E-score” value was -0.0908.

In the case of ATACATAA, the “PBM E-score” value was determined as 0.309.

Regarding GCCATATA, the “PBM E-score” value turned out to be 0.0556.

In the case of CCACACAG, the “PBM E-score” value stood at 0.00077.

On to GGTAAATA, for which the “PBM E-score” value came to 0.225.

On to CCAATTCA, for which the “PBM E-score” value is 0.0518.

As for CTTAAGTA, the “PBM E-score” value came out at 0.128.

For the sequence CATGTGCA, the “PBM E-score” value is -0.249.

Consider AGCATGGC, for which the “PBM E-score” value was -0.279.

Take AGTTACCA: the “PBM E-score” value was 0.0265.

Turning to CCTGTACA, the “PBM E-score” value is 0.141.

With ACGGAGGG, the “PBM E-score” value is -0.183.

For the sequence GCTAGACC, the “PBM E-score” value is -0.193.

Turning to ATGCAGGA, the “PBM E-score” value was -0.0288.

As to GTTACGTA, the “PBM E-score” value is -0.089.

On to CATAGAAA, for which the “PBM E-score” value was 0.23.

For AACGATGT, the “PBM E-score” value amounted to 0.138.

In the case of CAGGCATG, the “PBM E-score” value is -0.1.

Consider AGCTCCCT, for which the “PBM E-score” value was -0.289.

Regarding GCTCTGGA, the “PBM E-score” value was -0.0114.

For AGCGATCC, the “PBM E-score” value was -0.122.

Take CAGCGACG: the “PBM E-score” value is -0.0762.

As to CCAAAGAC, the “PBM E-score” value is -0.148.

With ATAACCAG, the “PBM E-score” value turned out to be 0.105.

For ATCGCCAG, the “PBM E-score” value came to 0.0383.

As to AATGAGAT, the “PBM E-score” value is 0.263.

Consider AAGCGTAG, for which the “PBM E-score” value is -0.0571.

As for GTAGATAA, the “PBM E-score” value was 0.333.

For the sequence ATATCAGA, the “PBM E-score” value was 0.289.

Regarding TCCTCCGA, the “PBM E-score” value was -0.203.

Regarding TCGCCGAA, the “PBM E-score” value was 0.0469.

Consider CGTGTTTC, for which the “PBM E-score” value is -0.018.

Regarding TAAGTCCA, the “PBM E-score” value amounted to 0.0338.

As for ACACAAGT, the “PBM E-score” value stood at 0.126.

Take GACGCCCC: the “PBM E-score” value is -0.25.

CCAGATGC: the “PBM E-score” value is -0.15.

With ATTCTCTA, the “PBM E-score” value was found to be 0.159.

Turning to CCGGACCG, the “PBM E-score” value was -0.172.

For TACAAAGA, the “PBM E-score” value came to 0.218.

Turning to ACCGATAG, the “PBM E-score” value was -0.096.

Take AGCAATCC: the “PBM E-score” value was -0.128.

As for CCGGCGGA, the “PBM E-score” value is -0.00079.

Consider CATCAGAG, for which the “PBM E-score” value is 0.059.

GCTTGAAC: the “PBM E-score” value was determined as 0.167.

For the sequence ACGGTGCA, the “PBM E-score” value was -0.0212.

With ACTGGGCG, the “PBM E-score” value was -0.197.

On to CTCGGGAC, for which the “PBM E-score” value was -0.0856.

On to TACTGTGA, for which the “PBM E-score” value came to 0.072.

Turning to GGGACACC, the “PBM E-score” value was -0.308.

In the case of ACGTTGTA, the “PBM E-score” value was 0.0347.

As to CAAGTGCC, the “PBM E-score” value is -0.0731.

On to GCAATGGC, for which the “PBM E-score” value is -0.272.

As to TCAAGGCA, the “PBM E-score” value is -0.0983.

Consider CCTCGGAG, for which the “PBM E-score” value is -0.0227.

Consider AGCCAGAA, for which the “PBM E-score” value was -0.153.

For the sequence AACTGAAG, the “PBM E-score” value came out at 0.0551.

Consider AGACAGTC, for which the “PBM E-score” value is -0.0329.

Regarding CAATATTC, the “PBM E-score” value turned out to be 0.219.

With CTCATTTA, the “PBM E-score” value was 0.0742.

ATGCGGGG: the “PBM E-score” value was -0.234.

With CCAGGAAC, the “PBM E-score” value is -0.103.

For CAGGATAA, the “PBM E-score” value is 0.274.

Consider AGGTCCAA, for which the “PBM E-score” value was -0.196.

For the sequence AACGGATT, the “PBM E-score” value was determined as 0.255.

On to CTCAGCCA, for which the “PBM E-score” value was -0.0871.

CACACCCG: the “PBM E-score” value was -0.165.

For the sequence GCCAAAAC, the “PBM E-score” value was -0.132.

Take TAATAAAA: the “PBM E-score” value is 0.365.

Regarding CAGGGCCA, the “PBM E-score” value was -0.313.

As to CTGATTTC, the “PBM E-score” value was -0.0423.

As for ACGATCCT, the “PBM E-score” value turned out to be 0.0631.

AACGCTAT: the “PBM E-score” value is -0.00386.

As for AAGAGGGC, the “PBM E-score” value is -0.0933.

For the sequence ACTGTCCC, the “PBM E-score” value is -0.204.

TAGTCGCA: the “PBM E-score” value stood at 0.0305.

In the case of CGAATGCG, the “PBM E-score” value worked out at 0.112.

For the sequence AAGGATGG, the “PBM E-score” value is -0.136.

In the case of ATCGACCC, the “PBM E-score” value was found to be 0.00901.

For GGCTGTAC, the “PBM E-score” value is -0.194.

For GGGCTGCA, the “PBM E-score” value is -0.21.

Turning to GGTAATGA, the “PBM E-score” value came to 0.0887.

With CAAATTAG, the “PBM E-score” value came to 0.0918.

On to AAATGTTA, for which the “PBM E-score” value turned out to be 0.149.

In the case of GATGCGGA, the “PBM E-score” value is -0.0741.

As to CGTCCGCC, the “PBM E-score” value was -0.169.

With ATAATACC, the “PBM E-score” value is 0.187.

For the sequence GTCTCTCA, the “PBM E-score” value was -0.0154.

Regarding CCAGATCA, the “PBM E-score” value was 0.0669.

As to GGGTGCAC, the “PBM E-score” value is -0.337.
